Results from PubChem BioAssay AID1347417 (National Center for Advancing Translational Sciences (NCATS), 2020).
Values joined by “and” are separate entries in the source; they are usually repeats but may differ in a detail not shown here. Identical values can stand only once. Out of some 120,000 compounds screened, about 5,300 (4.4%) were called active. This list was built around the results that the source calls inconclusive (neither active nor inactive); the mix of calls is not that of the screen. Calls follow the shape of the dose curve; as a rule, active = well fitted inhibition curve with a large enough effect; inconclusive = small, poorly fitted or top-dose-only effect; inactive = no such curve, though single readings can be large or run the other way. Potencies of inconclusive entries are doubtful fits and often do not repeat. More than one record can exist for a structure, and the calls need not agree.

Assay: qHTS Primary assay for Inhibitors of Plasmodium falciparum Dd2 growth in vitro; also: nearly all actives have a fitted effect of over 65% in size;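 as to activity, negative = inhibition: plate controls were DMSO vehicle for no effect and reference drug for full effect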
Conditions: P. falciparum Dd2 growth, SYBR Green, 72 h; activity, negative = inhibition: at 28.9 µM (top of the series) unless noted; series mostly up to 28.9 µM
Outline: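 Readout: SYBR Green fluorescence, 485 nm excitation, 535 nm emission, after ~16 h lysis at 37C. Before that, Dd2-infected red cells (2.5% hematocrit) grew 72 h with compound, 29 uM top final concentration.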
Potency is read from the fitted curve at half-maximal effect; tags tell the direction and shape of the fitted curve.

Structure (SMILES)	activity, negative = inhibition	Potency	outcome
CC(C)C(=O)NCCC1CCN(C(=O)Nc2cc(F)ccc2F)CC1	inactive: -8.98%		
CCN(CC)S(=O)(=O)c1ccc2c(c1)N(CC(=O)NCc1ccc(F)cc1)C(=O)CO2	inactive: 22.3%		
Cc1cc(N2CCN(c3cccc(C(F)(F)F)c3)CC2)n2nc(-c3ccccc3C)nc2n1		active: 11.2 µM	
O[C@@H]1C[C@@H](c2nc(Cc3ccc(F)cc3Cl)no2)N(Cc2ccc(OC(F)(F)F)cc2)C1		active: 7.94 µM	
CCOC(=O)C1CCCN(C(=O)Cn2ncc3c4ccccc4n(Cc4ccc(F)cc4)c3c2=O)C1 (stereo not drawn)		inconclusive: 17.8 µM [inhibitor, single point]	
CCCNC1CNC1	inactive: 0.666% [at 115 µM]		
CCCn1cnc2c1CN(C(=O)c1ccc(F)cc1)[C@H](C(=O)OC)C2	inactive: -3.2% [at 44.1 µM]		
CCc1nc2c(c(-c3ccc(Cl)cc3)n1)CCN(Cc1cccnc1)CC2		inconclusive: 1.41 µM [inhibitor, full curve, poor fit]	
CCc1nnc(NC(=O)CSc2nc3c([nH]c4ccccc43)c(=O)n2-c2ccc(C)cc2)s1		inconclusive: 3.98 µM [inhibitor, single point]	
CCc1nc2ccc(C(=O)N3CCN(c4cccc(OC)c4)CC3)cc2nc1CC		inconclusive: 11.2 µM [inhibitor, single point]	
CC1(C)[C@H](Cc2cc(COC(=O)c3cccs3)on2)C[C@@H]1NC(=O)c1cccs1		inconclusive: 10 µM [inhibitor, partial curve, poor fit]	
C[S+](=O)([O-])c1cccc(NC(=O)Cc2c[nH]c3ncc(-c4ccccc4)cc23)c1		inconclusive: 12.6 µM [inhibitor, partial curve]	
COc1cc2c(cc1OC)C(COc1cc(C)cc(C)c1)N(C(=O)c1ccc(S(=O)(=O)N3CCCC3)cc1)CC2 (stereo not drawn)		active: 3.16 µM	
O=C(CSc1nc2c([nH]c3ccccc32)c(=O)n1-c1cccc(Cl)c1)NCc1ccccc1		inconclusive: 17.8 µM [inhibitor, single point]	
CCC1CN(c2ccc(-c3nc(-c4ccc(OC)cc4)no3)cn2)CCN1C (stereo not drawn)		inconclusive: 20 µM [inhibitor, partial curve, poor fit]	
O=C(Cc1ccc(N(Cc2cccc(F)c2)C(=O)c2ccco2)cc1)NCC1CCCO1 (stereo not drawn)		inconclusive: 1.41 µM [inhibitor, partial curve, poor fit]	
Cc1nc(N2CCC(NC(=O)c3ccc(F)cc3Cl)CC2)cc(C(F)(F)F)n1			inactive
Cc1cc(-c2nc3ncccc3[nH]2)c(C)[nH]1		inactive and active: 28.2 µM	
